# From PubChem BioAssay AID445 (National Center for Advancing Translational Sciences (NCATS), 2006)
# In all, about 110,000 compounds went through this assay and about 40 (0.04%) were called active. The inconclusive results got no clear call from the source; some entries with a clear call stand among them for comparison. Calls follow the shape of the dose curve; as a rule, active = well fitted curve in the direction sought with a large enough effect in the signal ratio (not every such curve was filed as active); inconclusive = small, poorly fitted or top-dose-only effect, or a change in a side signal; inactive = flat fitted curve, though single readings scatter; the % refers to the signal ratio. Where the call is inconclusive, the potency comes from a doubtful curve fit.
# Assay: IkB Signaling;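 as to IkBa stabilization activation: 0% = basal untreated cells and 100% = reference inhibitor full response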
# Conditions: ABC-DLBCL IkBa-CBG/CBR dual luciferase ratio (green luciferase fused to IkBa over red control in OCI-Ly3 lymphoma cells), 4 h; IkBa stabilization activation: at 57.1 µM (top of the series), scaled: untreated 0%, proteasome inhibitor 100% unless noted
# Summary of the method: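 Curves were fitted separately to fusion (green), unfused (red) and ratio luminescence, then classed by r2, magnitude and activity. Cells: OCI-Ly3, 4 h compound plus doxycycline at 37C; 10 uM MG-132 defined full response.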
# Potency is read from the fitted curve at half-maximal effect.
Compound,Potency,IkBa stabilization activation
NC1=C(c2ccc(F)cc2)C(=O)CS1,"inconclusive: 3.98 µM [signal inhibitor, partial curve]",–
COc1ccc(C)cc1NC(=O)c1ccc2c(Cl)c3c(nc2c1)CCC3,inconclusive: 12.6 µM [signal inhibitor],–
Cn1nc(C(=O)N2CCN(c3ccccc3)CC2)c2c1-c1ccccc1S(=O)(=O)C2,–,inconclusive: 0.556% [signal inhibitor]
CCOC(=O)N1CCN(C(=O)c2ccc(Cn3c(=S)[nH]c4cc5c(cc4c3=O)OCO5)cc2)CC1,–,inconclusive: -0.418% [signal inhibitor]
COc1ccc(S(=O)(=O)c2c(SC)nn(Cc3ccccc3C)c2NC(C)=O)cc1,–,inconclusive: 2.05% [signal inhibitor]
Clc1ccccc1C(Nc1ncccn1)Nc1ncccn1,–,"inactive: 1.38% [at 11.4 µM, scaled: untreated 0%, proteasome inhibitor 100%]"
O=C(CSc1nc2c([nH]c3ccccc32)c(=O)n1-c1ccccc1)N1CCCC1,–,inactive
CC#N,–,inactive
Cc1ccc(C)c(S(=O)(=O)N2CCC(c3nc4c(nnn4Cc4ccc(F)cc4)c(=O)[nH]3)CC2)c1,–,inconclusive: 7.17% [signal inhibitor]
O=C(C1CC1)N1CCN=C1SCc1cccc(F)c1,–,inactive
O=c1c2oc3ccccc3c2n(Cc2ccccc2)c(=O)n1Cc1ccc2c(c1)OCO2,–,inconclusive: 1.27% [signal inhibitor]
CCOC(=O)C1CCCN(C(=O)c2ccc3c(c2)N(Cc2ccccc2)C(=O)c2ccccc2S3=O)C1 (stereo unspecified),–,inconclusive: -0.471% [signal inhibitor]
COc1cccc(C2=NOC(C(=O)NCc3ccc(F)cc3)C2)c1 (stereo unspecified),–,inactive
CCCC(=O)N1c2nc(C(C)C)nn2C2(CCCCC2)[C@@H]2CCCC[C@@H]21,–,inconclusive: -1.68% [signal inhibitor]
CCCCc1nn2c(=O)cc(COC(=O)c3ccccc3NC(=O)c3ccccc3OC)nc2s1,–,inactive
COc1cccc(NS(=O)(=O)c2ccc3[nH]cc(C(=O)N(C)C4CCCCC4)c(=O)c3c2)c1,–,inconclusive: 1.43% [signal inhibitor]
O=C(c1cc(-c2cccc(O)c2)on1)N1CCc2ccccc2C1,–,inconclusive: -8.41% [signal inhibitor]
Cn1c(NC(=O)c2ccccc2Br)cc(=O)n(C)c1=O,–,inactive
O=C(Nc1cccc(C(=O)N2CCOCC2)c1)c1cncc(Br)c1,–,inactive
COc1cccc(CNC(=O)c2ccc(NC(=O)N3CCCCc4ccccc43)cc2)c1,–,inconclusive: 1.74% [signal inhibitor]
C[C@@]1(CO)[C@H](O)CC[C@]2(C)[C@@H]1CC[C@H]1C[C@H]3C[C@]12CC[C@]3(O)COC(=O)CN,–,"inactive: -0.924% [at 11.4 µM, scaled: untreated 0%, proteasome inhibitor 100%]"
Cc1cc(C)nc(NC(=NCCc2c[nH]c3ccccc23)NC(=O)c2ccco2)n1,–,inconclusive: 7.79% [signal inhibitor]

Compound,Potency,IkBa stabilization activation
Cc1ccc(-c2cc(C(=O)N(Cc3ccccc3)Cc3ccco3)no2)cc1F,–,inconclusive: 0.391% [signal inhibitor]
O=C(COc1ccc(S(=O)(=O)NC2CCCCC2)cc1)N1CCN(c2ccc(F)cc2)CC1,–,inconclusive: 10.9% [signal inhibitor]
COc1ccc(CNc2cc(C)nc3ncnn23)c(OC)c1,–,inactive
CCOc1ccc(NC(=O)CSC2=Nc3ccccc3C3=NC(CC(=O)NCc4ccc5c(c4)OCO5)C(=O)N23)cc1 (stereo unspecified),–,inconclusive: 1.08% [signal inhibitor]
O=C(NCC(=O)N(Cc1cccs1)C(C(=O)NC1CCCC1)c1ccncc1)c1ccco1 (stereo unspecified),–,inactive
COc1ccc(-c2nc3ccccc3n2Cc2ccc(Cl)cc2)cc1,–,inconclusive: -7.61% [signal inhibitor]
O=C(OCc1cc(=O)n2c3c(sc2n1)CCCC3)c1cccc(NC(=O)c2ccccc2F)c1,inconclusive: 12.6 µM [signal inhibitor],–
N#CCCn1c(=O)c(-c2cccs2)nc2cnc(OCc3ccccc3)nc21,–,"inactive: 1.84% [at 11.4 µM, scaled: untreated 0%, proteasome inhibitor 100%]"
CC1CCCCN1CC(=O)N1CCCc2c1c(=O)oc1ccc(OCc3ccccc3)cc21 (stereo unspecified),inconclusive: 25.1 µM [signal inhibitor],–
Cc1cc(Br)ccc1NC(=O)C1(S(=O)(=O)c2ccc(Cl)cc2)CC1,–,inconclusive: 3.87% [signal inhibitor]
COc1ccc(OC)c(NC(=O)c2cc3sccc3n2C)c1,–,inactive
CCC(C)(C)n1nnnc1CN1CCN(c2nc3cc(OC)ccc3cc2C#N)CC1,–,inconclusive: 5.01% [signal inhibitor]
Cc1noc2nc(C(=O)O)nc(N3CCCCC3)c12,–,inconclusive: 2.5% [signal inhibitor]
CN1CCN(c2ncc3nc(-c4ccc(Cl)cc4)c(=O)n(C)c3n2)CC1,–,"inactive: -5.79% [at 11.4 µM, scaled: untreated 0%, proteasome inhibitor 100%]"
CCOC(=O)c1sc(SCC(=O)Nc2ccc(N(C)C)cc2)nc1N,"inconclusive: 10 µM [signal inhibitor, partial curve]",–
CCCCN(CC)C(=O)Nc1ccc2c(c1)N(C)C(=O)c1ccccc1S2,–,inconclusive: 1.26% [signal inhibitor]
Cn1cccc1C(=O)N1CCC2(CCCN(C(=O)Nc3cccc(F)c3)C2)CC1,–,"inactive: -0.438% [at 11.4 µM, scaled: untreated 0%, proteasome inhibitor 100%]"
COC(=O)c1c(C)sc(-c2c(-c3cccc(OC)c3)[nH]c3c2c(=O)[nH]c(=O)n3C)c1O,–,inconclusive: -0.91% [signal inhibitor]
COc1ccc(C)c2sc(N(Cc3cccnc3)C(=O)CCc3ccccc3)nc12,"inconclusive: 25.1 µM [signal inhibitor, single point]",–
CCCn1c(=O)c2sccc2n2c(CCCC(=O)Nc3ccc(C)c(F)c3)nnc12,–,inconclusive: -1.85% [signal inhibitor]
COc1ccc(-c2noc(CN3CCN(c4ccccc4OC)CC3)n2)cc1OC,–,inconclusive: -1.29% [signal inhibitor]
Cc1ccc(C(=O)COC(=O)c2cc(-c3ccc(Cl)cc3)nc3ccccc23)cc1,–,inactive

Compound,Potency,IkBa stabilization activation
Cn1c(SCC(=O)Nc2nc3ccccc3s2)ncc(C(=O)Nc2ccccc2)c1=O,–,inconclusive: 14% [signal inhibitor]
CCN(CC)c1nc2ccccc2nc1C(C#N)C(=O)NCCc1ccccc1 (stereo unspecified),–,inactive
COc1cccc(CNC(=O)CN2C(=O)N(c3ccc(C)cc3C)S(=O)(=O)c3ccccc32)c1OC,–,inconclusive: -1.5% [signal inhibitor]
COc1ccc(C)cc1-n1cnc2cc(C(=O)NC3CCCCCC3)ccc21,–,inconclusive: -3.67% [signal inhibitor]
O=C(O)c1c(-c2ccccc2)oc2ccc(OCc3c(F)cccc3Cl)cc12,–,inconclusive: -1.21% [signal inhibitor]
Cn1c(SC2=CS(=O)(=O)c3ccccc32)nc2ccccc21,–,inconclusive: 1.53% [signal inhibitor]
COc1ccc(-c2nc3cc(C)ccn3c2NC(=O)c2cccc(F)c2)cc1,–,inconclusive: 3.6% [signal inhibitor]
O=c1c2ccccc2n(Cc2c(F)cccc2Cl)c(=O)n1CCc1ccccc1,–,inactive
Cc1ccc(OCC(=O)NCC(c2ccc(Cl)cc2)N2CCOCC2)cc1C (stereo unspecified),–,inconclusive: 4.1% [signal inhibitor]
Cc1cccc(Nc2c(-c3ccsc3)nc3nc(C)cc(C)n23)c1,–,inconclusive: -1.3% [signal inhibitor]
CCOC(=O)c1c(C)[nH]c(C)c1S(=O)(=O)N(C)CC(=O)NCc1ccc(Cl)cc1,–,inactive
O=C(O)c1ccc2nc(-c3cc4cc(Cl)ccc4oc3=O)[nH]c2c1,"inconclusive: 5.01 µM [signal inhibitor, partial curve]",–
CCOc1ccccc1-c1nc(Cn2c(=O)cc(C)c3c(C)nn(-c4ccccc4)c32)c(C)o1,–,inactive
O=C(CSc1nc(-c2ccccc2F)nc2cc(=O)[nH]n12)Nc1cccc(C(F)(F)F)c1,–,inconclusive: 6.76% [signal inhibitor]
O=C(Cn1cc(C(=O)COc2ccccc2)c2ccccc21)NCc1ccco1,–,inconclusive: 1.41% [signal inhibitor]
Cc1cc(C)cc(OCCCn2c(-c3ccc(Cl)cc3)nc3ccccc3c2=O)c1,–,inconclusive: -0.392% [signal inhibitor]
COC(=O)c1sc(-c2ccccc2)cc1NC(=O)Nc1ccc(F)cc1,–,inconclusive: 2.77% [signal inhibitor]
COc1ccc(Cc2nn3c(-c4cc(OC)c(OC)c(OC)c4)nnc3s2)cc1,–,inconclusive: 5.71% [signal inhibitor]
COc1ccc(C(CC(=O)NCc2ccc(Cl)cc2)N2Cc3ccccc3C2=O)cc1OC (stereo unspecified),–,inactive
Cc1cc(C)cc(NC(=O)C2CCCN2S(=O)(=O)c2ccc3nc(-c4ccccc4)[nH]c3c2)c1 (stereo unspecified),–,inconclusive: 0.167% [signal inhibitor]
O=C(O)CC(NC(=O)c1ccccc1NC(=O)c1ccccc1)C(=O)O (stereo unspecified),"inconclusive: 15.8 µM [signal inhibitor, partial curve]",–
O=C(NCC1CCCO1)c1ccccc1-c1nc(-c2ccc(Cl)cc2)no1 (stereo unspecified),–,inactive
